B1: GPR68, Q15743 (parent)
chain: MGNITADNSSMSCTIDHTIHQTLAPVVYVTVLVVGFPANCLSLYFGYLQIKARNELGVYLCNLTVADLFYICSLPFWLQYVLQHDNWSHGDLSCQVCGILLYENIYISVGFLCCISVDRYLAVAHPFRFHQFRTLKAAVGVSVVIWAKELLTSIYFLMHEEVIEDENQHRVCFEHYPIQAWQRAINYYRFLVGFLFPICLLLASYQGILRAVRRSHGTQKSRKDQIQRLVLSTVVIFLACFLPYHVLLLVRSVWEASCDFAKGVFNAYHFSLLLTSFNCVADPVLYCFVSETTHRDLARLRGACLAFLTCSRTGRAREAYPLGAPEASGKSGAQGEEPELLTKLHPAFQTPNSPGSGGFPTGRLA

In data set [1] the parent is B1. The data set can be described thus: cAMP reporter score (Enrich2 score, wild type = 0); higher = more signal; HEK293T, FACS bins.
The variants in data set [2] derive from B1. The data set can be described thus: surface expression score (Enrich2 score, wild type = 0); higher = more signal; HEK293T, FACS bins.

Scores whose standard error is large were omitted. Not listed are two conditions whose scores span a narrow range. Read del as a deletion of the residues named and ins as an insertion between two positions. For some of these results: The concentration of ogerin is not given here.

As for F76C, the cAMP reporter score in data set [1] (pH 5.5) is -0.384; in data set [1] (pH 6, modulator: ogerin), -0.612; in data set [1] (pH 6.5, modulator: ogerin) it was -1.03. Moreover, the surface expression score in data set [2] is -0.829.

Turning to F76H, the cAMP reporter score is -1.8 in data set [1] (pH 5.5) and -0.526 in data set [1] (pH 6.5, modulator: ogerin). Further, the surface expression score in data set [2] is -2.08.

As to F76M, the cAMP reporter score in data set [1] (pH 5.5) was -0.156; in data set [1] (pH 6, modulator: ogerin), 0.797; in data set [1] (pH 6.5, modulator: ogerin), -0.518. Also, in data set [2], the surface expression score is -0.932.

For the variant F76V, the cAMP reporter score in data set [1] (pH 5.5) is -1.37; in data set [1] (pH 6, modulator: ogerin), -0.722; in data set [1] (pH 6.5, modulator: ogerin), -0.942. Also, the surface expression score in data set [2] was -0.247.

Regarding F76Y, the cAMP reporter score in data set [1] (pH 5.5) was 0.511; in data set [1] (pH 6), -0.125; in data set [1] (pH 6, modulator: ogerin), 0.334; in data set [1] (pH 6.5, modulator: ogerin), 0.431. In data set [2], the surface expression score came out at 0.262.

With F76G, the cAMP reporter score was -0.697 in data set [1] (pH 5.5); -0.972 in data set [1] (pH 6); -0.968 in data set [1] (pH 6, modulator: ogerin); -0.642 in data set [1] (pH 6.5, modulator: ogerin). For the same variant, the surface expression score in data set [2] is -1.72.

On to F76K, for which the cAMP reporter score in data set [1] (pH 5.5) was -1.06; in data set [1] (pH 6), -1.65; in data set [1] (pH 6, modulator: ogerin) it was -0.077; in data set [1] (pH 6.5, modulator: ogerin), -1.14. For the same variant, the surface expression score in data set [2] is -1.25.

Regarding F76S, the cAMP reporter score in data set [1] (pH 5.5) was -1.05; in data set [1] (pH 6), -0.862; in data set [1] (pH 6, modulator: ogerin), -1.26; in data set [1] (pH 6.5, modulator: ogerin) it was -0.669. Also, in data set [2], the surface expression score is -2.39.

As for F76R, the cAMP reporter score is -0.637 in data set [1] (pH 5.5); 0.118 in data set [1] (pH 6); -2.09 in data set [1] (pH 6, modulator: ogerin); -2.68 in data set [1] (pH 6.5, modulator: ogerin). Further, the surface expression score in data set [2] was -0.403.

F76L: the cAMP reporter score is 0.123 in data set [1] (pH 5.5); 0.429 in data set [1] (pH 6); -0.007 in data set [1] (pH 6, modulator: ogerin); -0.902 in data set [1] (pH 6.5, modulator: ogerin). Besides, the surface expression score in data set [2] was -0.711.

Consider F76N, for which the cAMP reporter score in data set [1] (pH 5.5) is -0.019; in data set [1] (pH 6, modulator: ogerin), -0.287; in data set [1] (pH 6.5, modulator: ogerin), -1.37. In addition, in data set [2], the surface expression score was -1.19.

Consider F76E, for which the cAMP reporter score is -1.51 in data set [1] (pH 5.5); -2.26 in data set [1] (pH 6); 0.534 in data set [1] (pH 6, modulator: ogerin); -3.23 in data set [1] (pH 6.5, modulator: ogerin). In data set [2], the surface expression score was -2.81.

Regarding F76P, the cAMP reporter score in data set [1] (pH 5.5) was -0.732; in data set [1] (pH 6) it was 1.75; in data set [1] (pH 6, modulator: ogerin) it was -0.659.

Take F76I: the cAMP reporter score in data set [1] (pH 5.5) is -1.68; in data set [1] (pH 6), -0.905; in data set [1] (pH 6, modulator: ogerin), -1.9; in data set [1] (pH 6.5, modulator: ogerin), -1.25. In data set [2], the surface expression score is -0.481.

On to F76T, for which the cAMP reporter score in data set [1] (pH 5.5) is -1.32; in data set [1] (pH 6, modulator: ogerin) it was -1.65; in data set [1] (pH 6.5, modulator: ogerin) it was -0.979. Moreover, the surface expression score in data set [2] is -0.09.

For the variant F76A, the cAMP reporter score is -1.24 in data set [1] (pH 5.5); -0.745 in data set [1] (pH 6); -1.1 in data set [1] (pH 6, modulator: ogerin); -0.965 in data set [1] (pH 6.5, modulator: ogerin). Also, the surface expression score in data set [2] was -1.84.

Turning to F76D, the cAMP reporter score in data set [1] (pH 5.5) was -0.679; in data set [1] (pH 6, modulator: ogerin), -0.649.

For the variant F76Q, the cAMP reporter score was -1.49 in data set [1] (pH 5.5); -0.801 in data set [1] (pH 6); -2.28 in data set [1] (pH 6, modulator: ogerin); -1.49 in data set [1] (pH 6.5, modulator: ogerin). The surface expression score in data set [2] is -1.78.

Consider P75del, for which the cAMP reporter score in data set [1] (pH 5.5) was -1.27; in data set [1] (pH 6), -0.685; in data set [1] (pH 6, modulator: ogerin), -2.18; in data set [1] (pH 6.5, modulator: ogerin) it was -0.732. In data set [2], the surface expression score was -1.02.

As to D67_L68insGSG, the cAMP reporter score is -1.82 in data set [1] (pH 5.5); -1.76 in data set [1] (pH 6); -1.68 in data set [1] (pH 6, modulator: ogerin); -1.65 in data set [1] (pH 6.5, modulator: ogerin). Besides, the surface expression score in data set [2] is -2.04.

As to C72del, the cAMP reporter score was -0.688 in data set [1] (pH 5.5); -0.596 in data set [1] (pH 6); -1.59 in data set [1] (pH 6, modulator: ogerin); -0.412 in data set [1] (pH 6.5, modulator: ogerin). In data set [2], the surface expression score was -2.42.

As for F69I, the cAMP reporter score in data set [1] (pH 5.5) is -0.19; in data set [1] (pH 6), -0.853; in data set [1] (pH 6, modulator: ogerin), -0.937; in data set [1] (pH 6.5, modulator: ogerin), -1.06. Besides, the surface expression score in data set [2] stood at 1.75.

Turning to F69D, the cAMP reporter score in data set [1] (pH 5.5) was -2.26; in data set [1] (pH 6), -1.79; in data set [1] (pH 6, modulator: ogerin), -1.93; in data set [1] (pH 6.5, modulator: ogerin), -0.462. For the same variant, the surface expression score in data set [2] was -3.14.

For F69M, the cAMP reporter score in data set [1] (pH 5.5) was 0.961; in data set [1] (pH 6), 0.3; in data set [1] (pH 6, modulator: ogerin) it was 0.181; in data set [1] (pH 6.5, modulator: ogerin), -0.533. For the same variant, the surface expression score in data set [2] was 1.25.

Consider F69S, for which the cAMP reporter score in data set [1] (pH 5.5) was 0.401; in data set [1] (pH 6), -0.957; in data set [1] (pH 6, modulator: ogerin), -0.478; in data set [1] (pH 6.5, modulator: ogerin) it was -1.03. In addition, the surface expression score in data set [2] was -1.15.

In the case of F69T, the cAMP reporter score in data set [1] (pH 5.5) was -0.343; in data set [1] (pH 6) it was -0.361; in data set [1] (pH 6, modulator: ogerin) it was -1.27; in data set [1] (pH 6.5, modulator: ogerin), -0.629. Further, the surface expression score in data set [2] was -0.896.

With F69C, the cAMP reporter score was -0.497 in data set [1] (pH 5.5); -1.49 in data set [1] (pH 6); 0.606 in data set [1] (pH 6, modulator: ogerin); -0.41 in data set [1] (pH 6.5, modulator: ogerin). Further, the surface expression score in data set [2] is 0.784.

F69L: the cAMP reporter score was -0.364 in data set [1] (pH 5.5); 1.09 in data set [1] (pH 6); -0.549 in data set [1] (pH 6, modulator: ogerin); -0.353 in data set [1] (pH 6.5, modulator: ogerin). For the same variant, the surface expression score in data set [2] amounted to 0.166.

Regarding F69Q, the cAMP reporter score is -0.516 in data set [1] (pH 5.5); -0.617 in data set [1] (pH 6); -1.13 in data set [1] (pH 6, modulator: ogerin); -1.61 in data set [1] (pH 6.5, modulator: ogerin). The surface expression score in data set [2] is -2.31.

As to F69P, the cAMP reporter score in data set [1] (pH 5.5) was -0.414; in data set [1] (pH 6), -1.13; in data set [1] (pH 6.5, modulator: ogerin), -0.673.

In the case of F69R, the cAMP reporter score in data set [1] (pH 5.5) is -0.342; in data set [1] (pH 6, modulator: ogerin), -0.767; in data set [1] (pH 6.5, modulator: ogerin), -0.961. The surface expression score in data set [2] was -0.831.

For the variant F69K, the cAMP reporter score in data set [1] (pH 5.5) was -1.75; in data set [1] (pH 6) it was -0.875; in data set [1] (pH 6, modulator: ogerin), -0.718; in data set [1] (pH 6.5, modulator: ogerin) it was -0.969. Besides, the surface expression score in data set [2] was -2.35.
